# The whole screen tested about 110,000 compounds, of which about 230 (0.21%) showed an effect of 50% or more. Some of the results follow.
# Target: DPAP1 (Plasmodium falciparum, UniProt Q8IIJ9)
# Assay: primary screen, percent inhibition; read by cleavage of a fluorogenic dipeptide substrate; higher = more effect of the substance
# Parameters: species or system P. falciparum D10 trophozoite lysates; single well
# 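Note: 30 min substrate incubation versus DMSO and 10 µM JCP410 controls.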
# Sequence of DPAP1 (Q8IIJ9 whole entry, looked up): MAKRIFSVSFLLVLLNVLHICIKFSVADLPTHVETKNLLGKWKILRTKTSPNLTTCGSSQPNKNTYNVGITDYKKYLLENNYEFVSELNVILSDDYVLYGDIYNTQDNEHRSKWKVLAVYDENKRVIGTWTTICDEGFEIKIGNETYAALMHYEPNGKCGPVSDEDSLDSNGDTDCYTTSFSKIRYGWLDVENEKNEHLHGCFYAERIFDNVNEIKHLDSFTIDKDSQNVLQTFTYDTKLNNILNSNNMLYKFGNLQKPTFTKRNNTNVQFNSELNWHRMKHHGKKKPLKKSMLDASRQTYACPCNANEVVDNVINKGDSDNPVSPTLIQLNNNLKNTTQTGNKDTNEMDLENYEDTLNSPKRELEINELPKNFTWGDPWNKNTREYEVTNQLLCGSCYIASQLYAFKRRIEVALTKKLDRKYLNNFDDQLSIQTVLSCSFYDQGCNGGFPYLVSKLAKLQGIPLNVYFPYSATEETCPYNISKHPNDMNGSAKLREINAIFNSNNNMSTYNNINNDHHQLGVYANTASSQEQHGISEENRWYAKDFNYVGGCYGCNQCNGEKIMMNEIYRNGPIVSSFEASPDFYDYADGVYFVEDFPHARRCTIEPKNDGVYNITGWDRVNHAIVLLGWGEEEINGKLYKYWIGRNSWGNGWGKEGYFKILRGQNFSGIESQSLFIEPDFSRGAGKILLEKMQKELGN
row,Structure (SMILES),% Inhibition @ 10 uM [%]
1,CN(CC(=O)NC1CCN(Cc2ccccc2)CC1)c1nnc(N2CCCC2=O)s1,0.544
2,CCOc1ccc(CCNC(=O)C2CC(C)=CCC2C(=O)O)cc1OCC (stereo not shown),2.7
3,COc1ccc(NC(=O)C2=C(C)NC(=O)NC2c2ccc(F)cc2)cc1 (stereo not shown),6.17
4,CCOC(=O)c1ccc(-c2ccc(/C=C(/C#N)C(=O)NCCO)o2)cc1,20.4
5,CC(=O)C1=C(C)N=C2C(=C(O)c3ccccc32)C1c1cccnc1 (stereo not shown),2.68
6,Cc1ccc(C(=O)c2sc3nc4c(cc3c2N)C(=O)CC(C)(C)C4)cc1,2.38
7,O=C(NCc1ccco1)c1cccc(F)c1,2.6
8,CN(C)c1ccc(C(=O)c2ccccc2C(=O)O)cc1,0.76
9,CC(C)(C)Oc1ncc(-c2nccc(Br)n2)c(OC(C)(C)C)n1,2.27
10,Nc1nc2c3ccccc3nc(-c3ccccc3)n2n1,-2.28
11,CCCN1CCN(C(=O)CCCn2nc(C)c3sc4ccccc4c3c2=O)CC1,1.31
12,CCOC(=O)C1CCN(Cc2ccco2)CC1,-7.52
13,Cc1ccc(CN2c3ccsc3C(O)=C(/C=N/CCc3c[nH]c4ccccc34)S2(=O)=O)cc1,3.78
14,NC(=O)c1sc2nc3c(cc2c1N)CN(Cc1ccccc1)CC3,2.34
15,CCn1ncc(CNC(=O)CCCSc2nc(-c3ccco3)cc(C(F)(F)F)n2)c1C,-5.41
16,Cc1cccc(-c2nc3c4ccccc4nc(NCc4ccc5c(c4)OCO5)n3n2)c1,0.981
17,Cc1ccc(C)c(OCCCc2c(C)n[nH]c2C)c1,-2.12
18,COc1ccc(CN2CCN(c3ccc(Cl)cc3)CC2)cc1C,1.38
19,Cn1c(=O)c2c(nc(OCc3cccnc3)n2Cc2c(F)cccc2Cl)n(C)c1=O,3.35
20,Cc1ccc(-c2onc(C)c2C)cc1S(=O)(=O)NCc1ccc2c(c1)OCO2,0.977
21,Cc1cc(O)ccc1NC(=O)Cn1cnc2c(=O)n(C)c(=O)n(C)c21,-5.71
22,CCOC(=O)CCNC(=O)C(c1ccccc1)c1ccccc1,-7.35

row,Structure (SMILES),% Inhibition @ 10 uM [%]
1,C=C(C)[C@@H]1CC=C(CN2CCN(C(=O)OCC)CC2)CC1,-2.21
2,Cc1ccc(/C=C2/C(=O)/C(=C/c3ccc(C)o3)C3CCC2N3C)o1,-21.6
3,CSc1nc(O)c2c(n1)N=C1CC(C)(C)CC(O)=C1C2c1cccnc1 (stereo not shown),0.457
4,COc1ccc(CN2CCN(C)CC2)cc1Br,2.96
5,CCOc1ccc(NS(=O)(=O)c2ccc(NC(=O)NC3CCCCC3)cc2)cc1,-9.02
6,OCCNCc1cccc(OCc2ccccc2)c1,3.93
7,CC(SC(=S)N1CCCC1)C(=O)O (stereo not shown),-1.93
8,CC1=C(C#N)C(=O)N(C)C(=O)/C1=C/c1ccc(-c2ccc(Br)cc2C(=O)O)o1,-4.93
9,COc1ccc(CCNC(=O)c2ccc(CS(=O)(=O)c3cccc(C(F)(F)F)c3)o2)cc1OC,-1.28
10,COc1ccc(S(=O)(=O)N2CCCC(C(=O)O)C2)cc1Cl (stereo not shown),0.401
11,CCOc1cc(/C=C2/NC(=O)NC2=O)ccc1OC,-1.93
12,CC1=C(c2ccc(C)cc2)S(=O)(=O)N=C1NCCCN1CCC(Cc2ccccc2)CC1,5.42
13,CCNC(=O)CN(c1ccc(OC)c(OC)c1)S(=O)(=O)c1ccccc1,-2.14
14,OC1=C2CN(C3CCCCC3)CN=C2CC(c2ccccc2)C1 (stereo not shown),8.12
15,CC1(C)CC(=O)C(/C=N/CCN2CCN(CCc3ccccc3)CC2)=C(O)C1,1.37
16,Cc1ccc(NC(=O)CN2CCCCC2)cc1Cl,-1.65
17,COc1ccc(NC(=O)Cn2nc(C(F)(F)F)cc2C2CC2)cc1,-1.04
18,O=C1N/C(=C/c2ccc(Sc3ccccc3)cc2)C(=O)N1Cc1ccccc1F,-1.81
19,CCOc1ccccc1N(CC(=O)Nc1ccc(Br)c(C)c1)S(C)(=O)=O,-11
20,O=C(NC1CCCC1)C1CC(c2ccc(F)cc2)=NO1 (stereo not shown),5.92
21,CCOc1ccc(C(=O)N2CCN(c3ncccn3)CC2)cc1,1.28
22,CN1C(=O)CC(N2CCN(C(=O)CN3CCCC3)CC2)C1=O (stereo not shown),5.58

row,Structure (SMILES),% Inhibition @ 10 uM [%]
1,CCCOc1ccc(C(=O)N/C(=C/c2ccc3c(c2)OCO3)C(=O)NCCCO)cc1,21.8
2,CCC(Oc1cccc(C)c1)c1nc2ccccc2[nH]1 (stereo not shown),0.558
3,N=C1/C(=C/c2cccn2Cc2ccc(F)cc2)C(=O)N=C2SC=CN12,0.275
4,Cc1ccccc1C(=O)Nc1ccc(S(=O)(=O)N(C)Cc2ccccc2)cc1,8.37
5,CCc1ccc(-c2nc(CSCC(=O)NCCCOC)c(C)o2)cc1,-2.85
6,O=C(Cn1c(-c2cccs2)cc2ccccc21)N1CCC2(CC1)OCCO2,-0.911
7,Cc1cc(Cl)ccc1NC(=O)C(=O)NCc1ccccc1,-5.9
8,COc1ccc(OC)c(Nc2nc3cc(C)ccc3cc2C)c1,-1.56
9,CCCCOc1ccc(CN(C)c2ncnc(N)n2)cc1,1.24
10,CCN1CCN(C/C=C/c2ccc(N(C)C)cc2)CC1,-0.0494
11,Cc1ccccc1C1CC(=O)NC(SCC(N)=O)=C1C#N (stereo not shown),4.11
12,Cc1nc2ccn(Cc3cccnc3)c(=O)c2cc1C(=O)NCCc1c[nH]c2ccccc12,-0.12
13,CCOc1cc(C2C3=C(CCCC3=O)N(CC(=O)O)C3=C2C(=O)CCC3)cc(Cl)c1OCC,-3.65
14,CC1=C(C(=O)Nc2ccccc2)C(c2ccc(C)o2)n2c(s/c(=C/c3ccoc3)c2=O)=N1 (stereo not shown),-0.28
15,Cc1cc(Oc2ccc(-c3ccccc3)cc2)nc(-c2ccccc2O)n1,-1.07
16,Cc1cc(C(=O)NCCc2ccccc2)c2c(C)nn(-c3ccccc3)c2n1,-6.46
17,c1ccc2c(c1)OCC(CSc1nnc3c(n1)[nH]c1ccccc13)O2 (stereo not shown),6.51
18,COc1cccc(N2C(=O)c3ccc(-c4nc5ccccc5o4)cc3C2=O)c1,4.49
19,O=C(Nc1ccc(Cl)c(Cl)c1)C1CC(=O)N(c2ccc(F)cc2)C1 (stereo not shown),4.07
20,CC1(C)CC(=O)C(/C=N/c2cccnc2Cl)=C(O)C1,-2.83

# From paper PMC6919601, “Identification of Plasmodium dipeptidyl aminopeptidase allosteric inhibitors by high throughput screening” (PLoS ONE, 2019)
